# Test results taken from paper PMC4336329 (PLoS ONE, 2015).
# Hit rate of the full screen: of about 310,000 compounds, about 14,000 (4.5%) showed an effect of 50% or more. The effect is printed as a negative number. This is one part of the list.
# Biological target: human ether-à-go-go-related gene (hERG) potassium channel (human, UniProt Q12809)
# Test: primary screen, population patch clamp on CHO cells stably expressing hERG
# 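Also: peak tail current of the secondary pulse compared with the same well before compound.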
# Chain of human ether-à-go-go-related gene (hERG) potassium channel (Q12809 whole entry, looked up): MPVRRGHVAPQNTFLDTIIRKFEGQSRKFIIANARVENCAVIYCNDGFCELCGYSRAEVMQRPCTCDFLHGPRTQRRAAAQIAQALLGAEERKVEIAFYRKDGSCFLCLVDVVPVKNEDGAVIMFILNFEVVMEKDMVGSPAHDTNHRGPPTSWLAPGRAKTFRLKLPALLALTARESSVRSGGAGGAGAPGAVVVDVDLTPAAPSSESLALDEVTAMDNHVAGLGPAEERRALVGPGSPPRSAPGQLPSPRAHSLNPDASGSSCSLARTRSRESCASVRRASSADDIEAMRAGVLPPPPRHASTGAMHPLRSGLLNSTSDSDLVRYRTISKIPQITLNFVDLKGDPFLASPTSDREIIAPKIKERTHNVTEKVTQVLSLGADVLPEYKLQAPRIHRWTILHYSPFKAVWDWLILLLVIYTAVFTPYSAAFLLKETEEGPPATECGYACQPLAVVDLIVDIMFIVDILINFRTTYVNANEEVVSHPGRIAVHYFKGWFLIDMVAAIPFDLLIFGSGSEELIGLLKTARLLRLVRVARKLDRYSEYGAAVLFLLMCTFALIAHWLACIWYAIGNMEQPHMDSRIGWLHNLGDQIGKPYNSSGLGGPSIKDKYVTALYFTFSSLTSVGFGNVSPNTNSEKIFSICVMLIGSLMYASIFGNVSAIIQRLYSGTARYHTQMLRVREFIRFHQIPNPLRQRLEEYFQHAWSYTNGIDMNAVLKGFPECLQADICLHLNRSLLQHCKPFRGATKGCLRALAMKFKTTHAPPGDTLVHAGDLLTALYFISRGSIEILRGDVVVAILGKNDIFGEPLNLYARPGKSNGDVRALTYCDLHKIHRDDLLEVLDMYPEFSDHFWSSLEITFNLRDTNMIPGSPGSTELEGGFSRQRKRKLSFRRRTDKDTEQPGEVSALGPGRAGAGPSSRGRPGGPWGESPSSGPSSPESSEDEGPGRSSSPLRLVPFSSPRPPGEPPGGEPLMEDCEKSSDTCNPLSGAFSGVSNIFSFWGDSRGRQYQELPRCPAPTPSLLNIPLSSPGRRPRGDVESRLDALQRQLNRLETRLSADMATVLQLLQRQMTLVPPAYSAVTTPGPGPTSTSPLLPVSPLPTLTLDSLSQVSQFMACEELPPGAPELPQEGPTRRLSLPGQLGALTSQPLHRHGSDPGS
row,Compound,"hERG current change (%, negative = inhibition) at 10uM [%]"
1,O=C(COC(=O)C12CC3CC(CC(C3)C1)C2)Nc1ccc([N+](=O)[O-])cc1Cl,14.9
2,COC(=O)c1ccc(NC(=O)CN2CCN(S(=O)(=O)c3ccc(Br)cc3)CC2)cc1,-31.4
3,CCN(CC(=O)Nc1ccc(OC)cc1)C(=O)C1CCN(C(=O)c2ccc(Cl)cc2)CC1,-39.2
4,Cc1nc(SCC(=O)Nc2ccc3c(c2)OCO3)c(C#N)c2c1CCCC2,9.45
5,CN(C)CCCNc1oc(-c2ccccc2Cl)nc1S(=O)(=O)c1ccccc1,-43.3
6,O=C(NC1=NCCS1)c1ccc(Cl)c(Cl)c1,0.298
7,CCOC(=O)C1CCCN(C(=O)c2cn(C)c3ccc(S(=O)(=O)N(C)C)cc3c2=O)C1 (centres unmarked),-3.32
8,O=Cc1ccc(OCc2cn3ccccc3n2)cc1,-0.106
9,CCOc1ccc(S(=O)(=O)NC(=O)c2ccccc2)cc1,14.1
10,N#C/C(=C\c1ccc(OCCN2CCOCC2)cc1)C(=O)Nc1ccccc1F,-27.8
11,O=C(CSc1ccc2nnc(-c3cccnc3)n2n1)NCC1CCCO1 (centres unmarked),-9.66
12,CC(C)OC(=O)CSc1nnc2c(n1)[nH]c1ccc(F)cc12,8.22
13,CC(C)c1ccc(OCc2ccc(C(=O)NN3CCN(C)CC3)o2)cc1,-31.7
14,O=C(NCc1cccnc1)c1ccc(S(=O)(=O)Nc2ccccc2)cc1,-47.1
15,CN(Cc1cn(C)nc1-c1ccccc1F)C1CCOC1 (centres unmarked),21.4
16,N/C(=N/O)C(c1ccccc1)c1ccccc1,9.81
17,CCC(=O)Nc1ccc2nc(C3CC3)n(Cc3ccccc3)c(=O)c2c1,2.83
18,Cc1ccc(/C=C/C(=O)O)cc1S(=O)(=O)NCCCO,5.74
19,COc1ccccc1C(CC(=O)Nc1nccs1)c1ccco1 (centres unmarked),2.68

row,Compound,"hERG current change (%, negative = inhibition) at 10uM [%]"
1,O=C(Nc1ccc(F)cc1)c1ccccc1NC(=O)C1CC=CCC1C(=O)O (centres unmarked),15.7
2,O=C(O)c1cc(O)ccc1NC(=O)c1cccc2ccccc12,9.38
3,N#C/C(=C\c1ccc(F)cc1)C(=O)Nc1ccccn1,2.68
4,CCCCCCCCOc1ccc(C2OC34CCCCC3C(C#N)(C#N)C2(C#N)C(=N)O4)cc1 (centres unmarked),6.39
5,CCN(C(=O)CN1C(=O)NC(c2ccccc2)(c2ccc(C)c(C)c2)C1=O)C1CCCCC1 (centres unmarked),-33.3
6,COc1ccc(OCCSc2nnc(-c3ccccc3)n2N)cc1,-5.1
7,CC(=O)c1cccc(NC(=O)CCS(=O)(=O)c2ccc(Br)s2)c1,14.7
8,O=C(OCc1nc2ccsc2c(=O)[nH]1)c1cc(Br)c(Br)s1,-9.02
9,COc1ccc(C(=O)NCCSc2ccccc2C)cc1,-14.4
10,Cc1nc2c(C)cccn2c(=O)c1NC(=O)c1cccs1,5.79
11,CCc1ccc(Nc2cnn(C34CC5CC(CC(CC(=O)O)(C5)C3)C4)c(=O)c2Cl)cc1,13.1
12,N#C/C(=C\N1CCOCC1)S(=O)(=O)c1ccc(Cl)cc1,2.5
13,O=C(NCc1ccc(F)cc1)c1ccc(S(=O)(=O)Nc2cccc(C(F)(F)F)c2)cc1,16.4
14,Cc1c(C(=O)N2CCN(S(=O)(=O)c3ccccc3F)CC2)oc2c(Cl)cccc12,-9.35
15,CCc1c(C#N)c(=O)[nH]c(=O)n1-c1ccccc1,2.27
16,CCCCOc1ccc(NC(=O)CN2CCN(CC)CC2)cc1.Cl,-15.9
17,CCn1c(CC(=O)Nc2ccccc2F)nnc1SCC(=O)Nc1nnc(C)s1,-22.2
18,CCN=C1S/C(=C\c2ccc(O)c(OCC)c2)C(=O)N1CC,-2.56
19,CC(C)C1CC(CCN2CCCCC2)(c2ccccc2)CCO1.Cl (centres unmarked),-24.3

row,Compound,"hERG current change (%, negative = inhibition) at 10uM [%]"
1,O=C(Nc1ccccc1)C(Cc1ccccc1)NC(=O)C12CC3CC(CC(C3)C1)C2 (centres unmarked),-3.81
2,CC12CN3CC(C)(CN(C1)C3c1ccc([N+](=O)[O-])o1)C2=O (centres unmarked),8.24
3,CNc1nc(C)cc(C)c1S(=O)(=O)c1ccc(Cl)cc1,-4.93
4,CCN(c1ccccc1C)S(=O)(=O)c1cc2c3c(c1)CCN3C(=O)CC2,-14.4
5,COc1cc(/C=N/NC(=O)c2ccc(COc3ccccc3Cl)o2)cc(Br)c1O,-15.1
6,CNc1nc(Nc2ccc(C(C)=O)cc2)nc(OC(C(F)(F)F)C(F)(F)F)n1,13.9
7,CCN(CC)CCNC(=O)c1cc2c(=O)n(CC)c3ccccc3c2s1,-13.4
8,Cc1ccc(S(=O)(=O)N2CCCCC2)cc1NC(=O)CN1C(=O)CN(C)C1=O,21.1
9,Nc1nonc1-c1noc(CCCCCN2C(=O)c3ccccc3C2=O)n1,-3.42
10,O=C(CCn1c(=O)sc2ccccc21)NC1=NCCS1,3.89
11,COc1ccc2c(c1)nc(NCCO)n2C,2.42
12,Cn1c(Nc2ccccc2)cc(=O)n(C)c1=O,17.3
13,Cc1ccc([C@@H]2CC=C(C(=O)O)[C@H](c3ccccc3F)N2S(=O)(=O)c2ccc(C)cc2)cc1,10.3
14,Cc1ccc(NC(=O)CCC(=O)NCCO)cc1,10.2
15,Cc1ccc(S(=O)(=O)N2CCN(C(=O)Cn3cnc4c3c(=O)n(C)c(=O)n4C)CC2)cc1C,-12
16,COc1ccc(N2CCN(CC(=O)Nc3nc4c(s3)CC(C)CC4)CC2)cc1 (centres unmarked),-26
17,COc1ccccc1NC(=O)CSc1nc2ccccc2nc1N1CC(C)OC(C)C1 (centres unmarked),16.6
18,CCOc1ccccc1CNC(=O)c1cn(C)c(=O)c2c1c1ccccc1n2C,14.7
